According to PubChem BioAssay AID1508642 (National Center for Advancing Translational Sciences (NCATS), 2021):
The campaign covered roughly 43,000 compounds. About 200 (0.47%) were called active. About 12% were inconclusive and are not listed. The call rests on the fitted dose curve; in most records, active means well fitted cell-killing curve with a large enough effect; inconclusive means small, poorly fitted or top-dose-only effect, or effect the other way; inactive means flat fitted curve, though single readings scatter. The list shows a part of the results.

Assay: Cell viability qHTS assay in S16 Pmp22-F2sN cells; further: nearly all actives have a fitted effect of over 65% in size
Conditions: S16 Pmp22-F2sN Schwann cells (luciferase reporters placed in the Pmp22 gene) viability, CellTiter-Glo, 24 h; series mostly up to 57.5 µM; activity change, negative = cytotoxicity: at the top concentration
Procedure, shortened: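 Seed 500-1,000 S16 Pmp22-F2sN cells per well in phenol-red-free DMEM with 10% heat-inactivated FBS; pin-add 23 nL compound; incubate 24 h at 37C; add CellTiter-Glo, wait 15 min protected from light; read luminescence.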
On the % scale 0 is the no-effect control and ±100 the full control effect.

SMILES	activity change, negative = cytotoxicity
O=C(Nc1ccc2nc(SCCOc3ccccc3Cl)sc2c1)c1ccc2c(c1)OCO2	inactive: -1.69%
CCCCC(=O)NC1(C(F)(F)F)C(=O)Nc2c1c(=O)[nH]c(=O)n2-c1ccc(C)c(C)c1 (configuration not stated)	inactive: 12.3%
CN(C)c1ccc(NC(=O)CSc2nc3ccsc3c(=O)n2CCCCCC(=O)O)cc1	inactive: -0.705%
COc1cc(OC)c(NC(=O)C(Cc2ccccc2)NS(=O)(=O)c2cccc3nsnc23)cc1Cl (configuration not stated)	inactive: -15.5%
Cc1c(C(=O)N(Cc2ccco2)Cc2ccccc2Cl)oc2ccc(F)cc12	inactive: -25.5%
COc1ccc(OC(C)C(=O)NCc2nc(-c3cccc(C)c3)no2)cc1 (configuration not stated)	inactive: -21.2%
Cc1oc(-c2ccccc2Cl)nc1CS(=O)(=O)CC(=O)NC(C)c1ccccc1 (configuration not stated)	inactive: 1.69%
Cc1ccc2onc(CNC(=O)NCc3ccccc3)c2c1	inactive: 3.68%
CCC(C(=O)Nc1ccccc1OC)n1c(C(=O)OC)cc2sc(Cl)cc21 (configuration not stated)	inactive: -12.9%
CCOc1ccccc1CNC(=O)CSc1nnc(C)c2c(C)n(-c3ccccc3)nc12	inactive: 0.498%
CCOCCCNC(=O)c1ccc2c(=O)n(CCc3ccc(OC)c(OC)c3)c(=O)[nH]c2c1	inactive: -4.41%
CC(=O)N1CCc2cc(S(=O)(=O)NC(CC(C)C)C(=O)NCCc3cccc(C)c3)ccc21 (configuration not stated)	inactive: -8.97%
Cc1ccc(CN(C(=O)COc2ccc([N+](=O)[O-])cc2)c2ccccn2)o1	inactive: 2.74%
CCC1CCCCN1S(=O)(=O)c1cc2c(cc1C)NC(=O)CO2 (configuration not stated)	inactive: -23.3%
CC(=O)c1ccc(NC(=O)CSc2ccc3nnc(CCNS(=O)(=O)c4ccc(C)cc4)n3n2)cc1	inactive: 17.6%
Cc1ccc(Nc2ncc(C(=O)Nc3ccc(F)cc3F)c3ccccc23)cc1Cl	inactive: -0.562%
CC(=O)c1cccc(NC(=O)C2CCN(S(=O)(=O)c3ccccc3)CC2)c1	inactive: 3.47%
COc1ccc(CNC(=O)c2nn(C)c3c2CS(=O)(=O)c2ccccc2-3)cc1	inactive: 4.39%
O=c1[nH]c2ccc(NCc3ccc(-c4ccc(F)cc4)o3)cc2[nH]1	inactive: -0.221%
CC1CCC(NC(=O)Cn2ncc3c4ccccc4n(Cc4ccc(F)cc4)c3c2=O)CC1 (configuration not stated)	inactive: -6.48%
c1ccc2c(c1)ncc1nncn12	inactive: 2.03%
CCc1nnc(SCC(=O)Nc2cccc(C(F)(F)F)c2)c2cc3oc(C)cc3n12	inactive: -2.77%
CCCc1nn2cc(-c3ccc(C)c(C)c3)nc2s1	inactive: -0.296%
CCOC(=O)Cc1c(C)nc2c(-c3ccc(Cl)cc3)c(C(F)(F)F)nn2c1C	inactive: 5.7%
COc1ccc(-c2noc(CSc3nnc(Cc4ccccc4)n3-c3cccc(C)c3)n2)cc1	inactive: -23.4%

SMILES	activity change, negative = cytotoxicity
O=C(COc1ccccc1)Nc1nnc(SCc2cc(=O)n3cc(Cl)ccc3n2)s1	inactive: -3.62%
COc1ccc(CCNC(=O)CCS(=O)(=O)c2cc3c(cc2Cl)NC(=O)CO3)cc1OC	inactive: 13.6%
Cc1cc(C)cc(NC(=O)c2cc(S(=O)(=O)N3CCCC3)ccc2F)c1	inactive: -14.6%
Cc1cccc(CSc2nnc(CCCCCN)o2)c1	inactive: 1.64%
Cc1ccc(C)c(NC(=O)c2nnn(Cc3ccc(F)cc3Cl)c2N)c1	inactive: -15.5%
CCc1c(C)sc2c1CCN(C(=O)Nc1cc(C)ccc1C)C2c1ccc(OC)cc1 (configuration not stated)	inactive: -23.8%
COc1ccc(OC)c(CCNC(=O)Cn2nc(C)n3c(cc4sccc43)c2=O)c1	inactive: 3.92%
COc1ccc(-n2ncc(C(=O)NCCN3CCOCC3)c2C2CCN(C(=O)OC(C)(C)C)CC2)cc1	inactive: 4.1%
COc1ccc(CCNS(=O)(=O)c2ccc(N3CCCCS3(=O)=O)cc2)cc1	inactive: -8.85%
CCC1Oc2ccccc2N(CC(=O)NCCc2ccc(OC)c(OC)c2)C1=O (configuration not stated)	inactive: 2.64%
COc1cc(OC)c(NC(=O)N2CCc3cc(S(=O)(=O)N4CCC(C)CC4)ccc32)cc1Cl	inactive: 12.3%
O=c1oc2ccc3ccccc3c2cc1-c1nnc(Nc2cccc(C(F)(F)F)c2)s1	inactive: 1.45%
COc1ccc(NC(=O)Cn2c(=O)n(Cc3ccco3)c(=O)c3oc4ccccc4c32)cc1Cl	inactive: -4.77%
Cc1nnc(N2CCC(C(=O)NC(C)C)CC2)c2nn(-c3ccccc3)c(C)c12	inactive: -16.2%
Clc1ccccc1CN1CCc2nc(N3CCN(c4ncccn4)CC3)ncc2C1	inactive: 18.1%
Cc1ccc(-c2noc(-c3nnn(-c4ccc(Br)cc4F)c3C)n2)cc1	inactive: -17.7%
O=C(Nc1ccc(F)cc1)c1cc2cc3ccc(Cl)cc3nc2o1	inactive: 6.69%
COc1ccc(-n2ncc3c2ncn2nc(Cc4ccccc4)nc32)cc1	inactive: 2.02%
Cc1ccccc1CNCc1c(C(=O)O)c(C)n(Cc2ccc(F)cc2Cl)c1C	inactive: 0.0016%
O=C(Nc1cccc(C(F)(F)F)c1)C1CCN(S(=O)(=O)c2cccs2)CC1	inactive: -17.4%
C=C(C)Cn1c(SCC(=O)c2ccccc2)nc2sc3c(c2c1=O)CCCC3	inactive: 23.8%
CC(=O)Nc1c(C)nn(-c2ccccc2)c1N1CCC(C(=O)NCc2ccc(F)cc2)CC1	inactive: 3.25%
CC(=O)c1ccc(NC(=O)CSc2nnc(N)s2)cc1	inactive: -16.8%
CCn1cc2nc(SCc3cccc(C(F)(F)F)c3)n(Cc3ccc(OC)cc3)c(=O)c2n1	inactive: -27.6%
O=c1c2oc3ccccc3c2n(Cc2ccc(Cl)cc2)c(=O)n1Cc1ccccc1	inactive: 2.88%

SMILES	activity change, negative = cytotoxicity
CCC1CCCCN1C(=O)CCS(=O)(=O)c1cc2c(cc1C)NC(=O)CO2 (configuration not stated)	inactive: 9.97%
Cc1ccc(Nc2c(-c3ccc(C)o3)nc3cccc(C)n23)cc1	inactive: -8.7%
O=C(CNC(=O)c1ccccc1)OCc1cc(=O)n2nc(C3CC3)sc2n1	inactive: -4.61%
COc1ccc(-c2cc(=O)oc3c4c(ccc23)OCN(Cc2ccccc2)C4)cc1	inactive: 6.85%
Cc1ccc(NC(=O)c2oc3ccccc3c2NC(=O)C23CC4CC(CC(C4)C2)C3)cc1	inactive: 11.2%
CCOc1ccc(Nc2ncnc3scc(-c4ccc(OC)cc4)c23)cc1	inactive: -1.49%
Cc1ccc(C(=O)NCc2ccccc2)cc1NC(=O)c1nsc2ccccc12	inactive: -25.5%
Cn1cc(C(=O)NCCc2ccccc2)c(=O)c2cc(S(=O)(=O)N3CCCCC3)ccc21	inactive: -1.64%
CC(C)(C)OC(=O)N1CCC(c2c(C(=O)N3CCN(Cc4ccccc4)CC3)cnn2-c2ccc(Cl)cc2)CC1	inactive: -26.7%
CCc1ccc(N2C(=O)CN(S(=O)(=O)CC)CC2(C)C(=O)NC2CCCCC2)cc1 (configuration not stated)	inactive: 13.3%
CCOC(=O)c1c(C)[nH]c(C)c1S(=O)(=O)N1CCC(C(=O)Nc2ccc(C)c(N(C)C)c2)CC1	inactive: -22.4%
Cc1ccc2oc(=O)n(Cc3ccccc3Cl)c2c1	inactive: 3.58%
CCc1ccc(OCC(=O)Nc2cc(-c3nc4cc(C)ccc4o3)ccc2C)cc1	inactive: 16.8%
CCCNC(=O)C1CCC(CNS(=O)(=O)c2ccc3c(c2)CC(C)N3C(C)=O)CC1 (configuration not stated)	inactive: -4.21%
CN(Cc1ccc(F)cc1)S(=O)(=O)c1nnc(NC(=O)c2ccccc2)s1	inactive: -3.33%
CCOc1c(Cl)cc(C(=O)N(Cc2ccc(N(C)C)cc2)Cc2ccco2)cc1Cl	inactive: -0.611%
CCc1cccc(C)c1Nc1c(-c2ccsc2)nc2ncccn12	inactive: 5.54%
Cc1ccc2c(c1)c1c3n2CCN(C(=O)c2cccc(C(F)(F)F)c2)C3CCC1 (configuration not stated)	inactive: 9.44%
Cc1ccc(C)c(Cn2c3ccccc3c3cnn(CC(=O)NCCc4ccccc4)c(=O)c32)c1	inactive: 8.18%
COc1ccc(N2CCN(Cc3nnc(-c4ccc5c(c4)OCO5)o3)CC2)cc1	inactive: -3.03%
Clc1ccc(-c2noc(-c3cccnc3NCc3ccco3)n2)cc1	inactive: 8.47%
Cc1cccc(CNC(=O)CCCN2C(=O)CCn3nc(-c4cccn4C)cc32)c1	inactive: 19.7%
Cc1ccc(-n2nc(C)c3nc(CCC(=O)Nc4cccc(F)c4)c(=O)n(C)c32)cc1	inactive: 2.23%
Cc1ccc2c(=O)cc(C(=O)Nc3sc4c(c3C(=O)NCC3CCCO3)CCCC4)oc2c1 (configuration not stated)	inactive: 6%
COc1ccc(C2CC(=O)c3cc(-c4nc(-c5cccc(Cl)c5)cs4)c(=O)[nH]c3C2)cc1 (configuration not stated)	inactive: 0.372%

SMILES	activity change, negative = cytotoxicity
CSc1oc(-c2cccs2)nc1S(=O)(=O)c1ccc(Br)cc1	inactive: -0.0965%
O=S(=O)(c1ccc(Cl)cc1Cl)n1ccnc1	inactive: -2.67%
CCOc1ccccc1N(C)C(=O)c1c2c(nc3ccccc13)C(=O)N(C1CCCCC1)C2	inactive: -25.8%
CCC(Sc1nc2ncccc2o1)C(=O)Nc1ccc(OC)c(OC)c1 (configuration not stated)	inactive: 7.04%
CCOc1ccc(Nc2nn(-c3ccc(OC(F)(F)F)cc3)nc2C(C)=O)cc1	inactive: -3.83%
COc1cccc(Cn2c(-c3nonc3NC(C)=O)nc3ccccc32)c1	inactive: -14.1%
CC(C)CCn1c(=O)c2cccnc2n(CC(=O)Nc2ccccc2F)c1=O	inactive: -1.23%
Cn1c2ccccc2c2cnn(CC(=O)Nc3ccccc3F)c(=O)c21	inactive: -4.5%
Cc1cc(C)cc(NC(=O)c2c(C)oc3nc(C)nc(N4CCCC4)c23)c1	inactive: 18.4%
CNC(=O)c1ccc2c(c1)N(Cc1ccccc1Cl)C(=O)c1ccccc1S2	inactive: 7.15%
O=C(COc1ccc(F)cc1)NCc1ccc2c(c1)CCN2C(=O)c1ccccc1	inactive: 2.62%
Cc1cccc(NC(=O)c2sc3nc(-c4cc5ccc(O)cc5oc4=O)[nH]c(=O)c3c2C)c1	inactive: -7.93%
O=C(Cn1c(=O)nc(-c2ccccc2F)c2cc(Cl)ccc21)NCCCc1ccccc1	inactive: -14.5%
COc1ccccc1CNC(=O)CCNS(=O)(=O)c1ccc2c(c1)oc(=O)n2C	inactive: -3.35%
COCCCN1C(=O)c2oc3ccccc3c(=O)c2C12C(=O)N(C)c1ccccc12 (configuration not stated)	inactive: -15.9%
COc1ccc(CC(=O)N2CCc3cc(OC)c(OC)cc3C2COc2ccc3c(C)cc(=O)oc3c2)cc1OC (configuration not stated)	inactive: 1.48%
O=C(COc1ccccc1F)Nc1ccc(OCc2cc(=O)n3ccccc3n2)cc1	inactive: -11.4%
COC(=O)c1ccc(Cn2c(SCc3ccc(F)cc3)nc3ccncc32)cc1	inactive: 1.87%
O=c1ccc2cc(S(=O)(=O)Nc3ccc(OC(F)(F)F)cc3)ccc2[nH]1	inactive: -2.81%
Cc1ccc(CNC(=O)CSC2=Nc3ccccc3N=C(c3ccc(F)cc3)C2)cc1	inactive: 22.9%
CCOc1ccc(NC(=O)CCc2c(C)nc3c(-c4ccccc4)c(C)nn3c2C)cc1	inactive: 9.44%
Cc1ccccc1C(=O)N1CCC(C(=O)Nc2ccc(F)cc2F)CC1	inactive: -0.2%
